Experimental data taken from the supplement of paper PMC3334620.
Over roughly 33,000 sequences, “E-score (-0.5 to 0.5)” has its median near -0.054; the highest 2% begin near 0.35. This is one part of the list.

biological target: T1, Stb5 (UniProt P38699); assay: PBM E-score (8-mer binding enrichment) (E-score (-0.5 to 0.5)); higher = stronger / more preferred TF binding; most listed sequences are background and not binding sites; settings: protein concentration: 200 nM; construct: GST-full length
T1 sequence: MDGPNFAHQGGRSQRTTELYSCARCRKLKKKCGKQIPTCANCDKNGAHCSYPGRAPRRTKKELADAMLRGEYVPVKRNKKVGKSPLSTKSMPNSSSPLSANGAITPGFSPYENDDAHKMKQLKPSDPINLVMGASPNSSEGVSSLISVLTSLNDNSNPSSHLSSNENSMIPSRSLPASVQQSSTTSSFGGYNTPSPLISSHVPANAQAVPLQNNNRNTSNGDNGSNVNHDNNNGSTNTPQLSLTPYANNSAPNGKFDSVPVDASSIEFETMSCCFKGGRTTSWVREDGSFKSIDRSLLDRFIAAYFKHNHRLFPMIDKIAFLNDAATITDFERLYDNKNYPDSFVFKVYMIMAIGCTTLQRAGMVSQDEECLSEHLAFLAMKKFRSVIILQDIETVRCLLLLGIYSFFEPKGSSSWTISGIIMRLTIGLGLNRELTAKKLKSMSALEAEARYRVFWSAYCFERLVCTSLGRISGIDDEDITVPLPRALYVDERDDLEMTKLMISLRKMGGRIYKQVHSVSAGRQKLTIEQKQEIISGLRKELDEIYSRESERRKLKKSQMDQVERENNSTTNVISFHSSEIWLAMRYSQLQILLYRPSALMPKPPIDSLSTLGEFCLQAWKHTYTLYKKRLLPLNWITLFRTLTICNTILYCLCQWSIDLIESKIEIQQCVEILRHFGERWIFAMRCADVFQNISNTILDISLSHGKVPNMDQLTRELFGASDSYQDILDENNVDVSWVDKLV
How it was run: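 GST-tagged yeast TFs (full-length or DNA-binding domain) were made by PURExpress in vitro transcription/translation and applied at about 100-200 nM to universal all-10-mer Agilent arrays. The arrays were made double-stranded by primer extension, on fresh or once-stripped slides. Bound protein was detected with fluorescent anti-GST, and scans were normalised with masliner. Each ungapped eight-base word, pooled with its reverse complement, received an E-score (modified Wilcoxon-Mann-Whitney statistic) from the Universal PBM Analysis Suite.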

Point of comparison: ACGAATGG, “PBM E-score” value -0.142. Against it:
- TCATCGAA — higher, -0.0757
- CCGATCGC — higher, 0.223
- CGAACACA — higher, -0.00887
- AGAGAATC — lower, -0.19
- GGCGAGCA — higher, -0.114
- CCGGTGAG — higher, 0.144
- GTCTAAAA — higher, -0.00511
- ACGTTTTG — lower, -0.318
- CGCGGTTA — higher, 0.37
- AAAGGTGA — higher, -0.00033
- GGATTGCA — higher, -0.0987
- GATGATAC — higher, 0.148
- TACATACA — lower, -0.228
- ATAAACGG — higher, 0.22
- AGAAAAGG — higher, -0.103
- GCTAATAA — higher, -0.00014
- ACCGTAGG — higher, 0.254
- CACCCCTG — lower, -0.154
- AATCGTCA — higher, -0.0811
- GCCCGCGC — higher, 0.317
- CAGGCAGG — lower, -0.235
- AATCGTGA — higher, 0.0225
- CCTATCCG — higher, -0.109
- CGGCGACG — higher, 0.194
- CGCGTTAA — higher, 0.107
- CTCAGTCC — higher, -0.0145
- CAACCATA — lower, -0.171
- CGCGTGCA — higher, -0.102
- CGAATCAA — higher, 0.0248
- CCGTGTAG — higher, -0.071
- GCGTAAGC — higher, 0.0141
- CAGCTATA — higher, 0.0381
- CGCTAAGA — higher, 0.0527
- ATGCATAG — lower, -0.228
- GAAGCGCA — higher, 0.0833
- GCCTCTAC — higher, -0.118
- ATAAGTTA — higher, -0.0389
- GGTAATAC — higher, 0.327
- AGGGTCAA — lower, -0.2
- CCAGCAGC — higher, -0.12
- ACCGATAA — higher, 0.338
- AGCCCTTA — lower, -0.157
- GTCGTAAC — higher, -0.0598
- CTGTAGTC — higher, -0.0251
- ACTAGCAG — lower, -0.334
- AGCTCTAC — lower, -0.243
- GAATTCCC — higher, 0.189
- CCTTGCCA — higher, -0.122
- ATACTAAG — higher, -0.0743
- ATGCTGCC — higher, -0.0035
- CCGAGAAA — higher, 0.18
- CCCTTTGA — higher, -0.0311
- AAACCTAG — lower, -0.17
- GCAGCCCA — lower, -0.264
- ATATAACC — higher, 0.268
- GCCGCACA — higher, 0.206
- AGTTTGGA — lower, -0.153
- AAAATATA — higher, 0.0784
- ATGCAAGG — higher, -0.104
- GCCAGGAC — lower, -0.187
- TAGGGACA — higher, -0.0568
- GGAAGAAA — higher, -0.0947
- AAGAAGGG — higher, -0.124
- GACCGTGA — higher, 0.123
- CACCCATC — higher, -0.0507
- AAAGCAAA — lower, -0.197
- AAACAGGT — higher, -0.0257
- CAATTAAG — higher, 0.157
- AGCTGTTC — lower, -0.207
- CTGTGGCC — higher, -0.016
- AATCTCCC — higher, -0.0498
- AAGTTCAA — higher, -0.0137
- GAGCCAAA — higher, -0.0585
- TCAACTCA — higher, -0.0658
- AATCAGGT — higher, -0.0618
- AGCTACCA — lower, -0.194
- GATTTGCC — higher, 0.0681
- CTATAAAG — higher, 0.156
- CCGTTACG — higher, 0.271
- GACGAGTC — lower, -0.227
- AGCGTAAC — higher, 0.00827
- AAAGTTGG — lower, -0.378
- AAAATGAT — higher, -0.1
- TAATGATA — higher, -0.0791
- GGTGCCAC — higher, 0.148
- CGCTGCGA — higher, 0.135
- CTTTCCCA — higher, -0.119
- ACGCTCTA — higher, -0.117
- CTCCGTCA — higher, 0.297
- AGTGGGTC — higher, 0.0423
- AGCGCAAG — lower, -0.159
- CCTGGCCC — lower, -0.191
- CTCAATCA — higher, -0.00421
- AGGTTGCC — higher, -0.132
- AATCTGCT — higher, -0.0835
- AGGCACCT — higher, -0.0254
- ACGTAACG — higher, 0.0237
- CTAAGTAA — lower, -0.147
- AGCGTGCG — higher, 0.0857
- CCATATAA — lower, -0.211
- CCGCCCTA — higher, 0.234
- AATACGAA — the same, -0.142
- GTAGAAGA — lower, -0.259
- CATTTAGC — higher, 0.11
- CACAACCC — lower, -0.156
- GAAGAGAC — higher, -0.0478
- AACAGCTA — higher, -0.118
- CACATAAG — higher, -0.0854
- GCAAAGGC — higher, 0.115
- ATTAGAAA — higher, -0.0635
- CACCGGGA — higher, 0.256
- AGTATACT — lower, -0.317
- AGCCAACT — lower, -0.317
- GAGCGTAA — higher, 0.0282
- ACGCCGAT — higher, 0.35
- GGAAGACC — higher, 0.195
- AACTGATT — lower, -0.282
- CAGGGAAC — lower, -0.192
- AATTCAGT — lower, -0.22
- AATACGCT — higher, 0.0294
- AAGAACCA — lower, -0.153
- AAATGTGC — higher, 0.111
- GGCTCCGA — higher, 0.0871
- TGCGACCA — higher, -0.0953
- CGTGCAGA — higher, -0.0929
- CCGTGTGA — higher, 0.101
- AATTAAGG — higher, -0.0572
- CATTCGAG — higher, -0.136
- TCTCGGAA — higher, -0.0692
- AGCCAAAG — lower, -0.145
- GATGTAGA — higher, -0.0699
- ATTCGGAC — higher, 0.224
- GGCACCAA — higher, 0.208
- ATCGGTCG — higher, 0.155
- ACTAATAT — higher, 0.135
- AACGCAAC — lower, -0.18
- GTAAATGA — higher, 0.0964
- AAAGCTCG — lower, -0.16
- GGTCTACA — higher, -0.0107
- AATTACAT — higher, 0.00227
- CGGGACAA — higher, 0.214
- CATATGGC — higher, -0.0135
- ACATGAAA — lower, -0.261
- CAGATGGC — higher, -0.0723
- GGTCACTA — higher, -0.0402
- ATTTGAGG — higher, -0.0669
- GTTGGTGA — higher, -0.0441
- GCTAACCC — higher, -0.00973
- CCCAGCAA — higher, -0.134
- GTCAAGGA — higher, -0.0637
- ATAGCTAG — lower, -0.256
- CGAGAGGA — lower, -0.296
- CGACGGTA — higher, 0.352
- CATTGCAG — lower, -0.193
- CCAGAGAC — lower, -0.174
- AGTTGACC — higher, 0.0522
- GATTTCTA — higher, 0.168
- AATGCGCT — higher, -0.125
- CGCAACCA — higher, 0.0261
- CAACGCTA — higher, -0.0671
- CTTTGGGC — higher, 0.19
- ACGCACGG — higher, 0.141
- CAGGTGCC — higher, -0.0602
- GACTCATC — lower, -0.21
- ATTCGGTA — higher, 0.145
- AGATGGAC — higher, 0.0541
- GTCGATAA — higher, -0.105
- CAACTTGA — higher, -0.00866
- ATGGGGGA — lower, -0.153
- ACTGAGCA — lower, -0.366
- AAAGAAGT — higher, -0.0835
